From ChEMBL document CHEMBL4888484, “Replenishing the malaria drug discovery pipeline: Screening and hit evaluation of the MMV Hit Generation Library 1 (HGL1) against asexual blood stage Plasmodium falciparum ,using a nano luciferase reporter read-out” (2022) come the findings set out here.

Screen size: about 150,000 compounds; about 540 (0.36%) showed an effect of 50% or more. This is one part of the list.

The subject of this assay is Plasmodium falciparum. As to the kind of experiment: Primary screen in NF54 nanoGlo assay, in single point, at 2uM, 72h; a lower Z score goes with more inhibition. Particulars: timepoint 72 hour. The class given is functional, Erythrocyte.
As a reminder, the % Inhibition is the drop in the measured response relative to a control, in per cent. Consider `CCCc1nc(CNC(=O)CCn2nnnc2C)cs1`, for which the “% Inhibition” value is given as -17% and the Z score is 1.68.
On to `Cc1ccc(C2(CNC(=O)Cn3ncnn3)CCCC2)c(C)c1`, for which the “% Inhibition” value is on record as -13% and the Z score came out at 1.48.
For `CC1CN(c2ccc(NC(=O)c3ccco3)cc2)CC(C)O1` (stereo unspecified), the “% Inhibition” value is listed as -2% and the Z score came to 0.34.
On to `O=C(c1ccc(Cn2ccnc2)o1)N1C[C@H]2CNC(=O)[C@]23CCCC[C@@H]13`, for which the “% Inhibition” value is listed as -11% and the Z score is reported as 1.75.
For `O=C(NCc1cccc(=O)[nH]1)c1cc(-c2ccccc2)nc2ccccc12` the same measures were -16% and 1.63.
For the molecule `CN1CCCN(C(=O)CCc2nc3ccccc3c(=O)[nH]2)CC1`, the “% Inhibition” value is listed as -3% and the Z score amounted to 0.38.
On the same counts, the results for `O=C(Cn1nnc2ccccc21)N(c1ccccc1)C1CCCCC1` are -13% and 1.77.
With `CC(=O)Nc1cccc2c(C(=O)N3CCN(c4ccc(C)cc4)CC3)ccnc12`, the “% Inhibition” value is -17% and the Z score was found to be 3.18.
For `COc1ccc(NC(=O)N2CCc3c(C(=O)NC4CC4)cccc32)cc1` the same measures were -3% and 0.35.
Take `Nc1nc(NCc2ccc3c(c2)OCO3)cc(C2CC(O)C2)n1` (stereo unspecified): the “% Inhibition” value was -5% and the Z score is 0.73.
On the same counts, the results for `COc1ccc(C2(C(=O)N3CCc4cc(OC)c(OC)cc4C3C)CCCOC2)cc1OC` (stereo unspecified) are -5% and 1.02.
For `O=C(Cc1cnn(-c2ccccc2)c1)Nc1ccc2[nH]c(=O)[nH]c2c1` the same measures were 34% and -0.93.
For `CC(=O)NCC1CN(C(C)c2nc3ccccc3o2)CCO1` (stereo unspecified) the same measures were -14% and 1.9.
For `COC(C)c1nc(CN2CCCC3CCCC32)cs1` (stereo unspecified), the “% Inhibition” value is -5% and the Z score is 0.8.
For `Cc1ccccc1C1(NS(=O)(=O)N2CCCC2)CC1` the same measures were -3% and 0.61.
For `CCN(CC)CCn1c2ccccc2n2cc(-c3ccc(OC)cc3)nc12` the same measures were -9% and 1.35.
For `COCc1nc(CN2CCO[C@H](c3ccc(Cl)cc3)C2)no1` the same measures were -2% and 0.27.
For `CN1C[C@@H](NC(=O)c2ccc(OCC3CC3)nc2)CCC1=O`, the “% Inhibition” value is reported as 13% and the Z score is -1.34.
On the same counts, the results for `CCN1CC(C(=O)N2CCCC3CCCC32)CC1=O` (stereo unspecified) are -6% and 0.65.
On the same counts, the results for `Cc1cccc(COc2nc3cc(C)ccc3cc2CNCc2cn(C)nc2C)c1` are 7% and -1.39.
On the same counts, the results for `CCC(CC)n1nc(C)cc1C(=O)N1CCN(Cc2cccnc2)C[C@@H]1C` are -2% and 0.28.
For the molecule `O=C(c1ccc2[nH]c3c(c2c1)CCCC3)N1CCCCCC1`, the “% Inhibition” value was found to be 3% and the Z score is -0.4.
On the same counts, the results for `CC(C)N(CC1CCC1)C(=O)NCc1cccc(O)c1` are 13% and -1.79.
On the same counts, the results for `Cc1c(-c2noc(C(=O)N3CCC(C)CC3)n2)oc2c(C)cccc12` are -3% and 0.34.
On the same counts, the results for `CO[C@H]1CCCC[C@@H]1NC(=O)NC1CCC(O)(c2cccnc2)CC1` (stereo partly specified) are -10% and 1.64.
Regarding `CCc1ccc2occ(CC(=O)Nc3c(C(=O)c4ccccc4)oc4ccccc34)c2c1`, the “% Inhibition” value is given as 7% and the Z score was -0.82.
For `COC(=O)CN(Cc1ccc(F)c(F)c1)c1cc(C)ncn1` the same measures were -7% and 0.98.
On the same counts, the results for `Oc1ccc(N2CCN(Cc3noc(-c4cccs4)n3)CC2)cc1` are -4% and 0.72.
On the same counts, the results for `O=C1CC2(CCN(c3cc(C4CC4)ncn3)CC2)CN1Cc1ccccc1` are -4% and 0.51.
As to `N#Cc1cccc(C(=O)N2CCc3n[nH]c(=O)n3CC2)c1`, the “% Inhibition” value was found to be 0% and the Z score was -0.03.
For `CCOc1ccncc1S(=O)(=O)NC[C@H]1CCCN1C1CCCCC1` the same measures were 7% and -1.22.
`Cn1nc(-c2ccc(F)cc2)cc1C(=O)Nc1ccc2c(c1)CN(S(=O)(=O)c1ccccc1)CC2`: the “% Inhibition” value turned out to be 3% and the Z score is reported as -0.54.
On the same counts, the results for `Nc1nnc(CCNC(=O)c2ccccc2)s1` are -6% and 0.76.
For `Cc1ccc(NC(=O)Cn2c(C)cncc2=O)cc1C` the same measures were -6% and 0.97.
Consider `O=C(Nc1ccc(Cl)c(Cl)c1)OCc1cn(-c2ccccc2)nc1-c1cccs1`, for which the “% Inhibition” value is on record as -6% and the Z score worked out at 1.
For `Nc1nc(CCC(=O)N[C@H]2CCCc3ccccc32)cs1` the same measures were -5% and 0.75.
On the same counts, the results for `CC(=Cc1ccc(C)cc1)C(=O)N[C@@H](CO)C(F)(F)F` are -11% and 1.59.
For `CCC(NC(=O)c1cnc(C)nc1)[C@H]1C[C@H](O)C1` (stereo partly specified) the same measures were -11% and 1.88.
As for `O=C(CCn1ccc2ccccc21)N1CCOCC1`, the “% Inhibition” value is reported as -10% and the Z score is on record as 1.4.
For `Cc1[nH]nc(C(N)=O)c1NC(=O)[C@H](C)NC(=O)CC1CCCCC1` the same measures were -9% and 1.28.
On the same counts, the results for `CN(C)CCN(CC(=O)OC(C)(C)C)C(=O)c1ccc(-n2ccc(C(F)(F)F)n2)cc1` are -5% and 0.48.
For `CC[C@]1(O)CCC12CCN(C(=O)CCc1ccc(OC)cc1)CC2` the same measures were -10% and 1.25.
Turning to `COc1cccc(-c2noc(N3CCN(C(=O)c4ccco4)CC3)n2)c1`, the “% Inhibition” value is reported as -22% and the Z score worked out at 1.97.
